The values that follow come from the supplement of paper PMC4604168 (melanoma cell lines).

The list shows a part of the results. Many values rest on one well or one pass, so single values are uncertain.

Some test systems named below: 501Mel; A101D; A2058; A375.
Experiment in all cases: cell count relative to DMSO control; melanoma cells; higher = more viable cells
Holding throughout (details): library dose: standard library concentration; 72 h
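Further: cells treated in 1,536-well plates, then fixed and DAPI-stained, with nuclei counted from automated high-throughput microscope images.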

For the molecule `Nc1ccn([C@@H]2O[C@H](CO)[C@@H](O)C2(F)F)c(=O)n1` [gemcitabine] + COc1ccc2c(c1)CCC1C2CCC2(C)C(NCCCCCCN3C(=O)C=CC3=O)CCC12 [U73122] (first compound 0.002 µM, partner dose 2 µM), the cell count amounted to 77.8% in the test with 501Mel, 54.2% in the test on A101D, 36% in the test with A2058 and 65.5% in the test on A375.

As to `Nc1nc(F)nc2c1ncn2[C@@H]1O[C@H](CO)[C@@H](O)[C@@H]1O` [fludarabine] + Cc1cc([N+](=O)[O-])ccc1NS(=O)(=O)c1cc(Cl)ccc1Cl [FH535] (first compound 1 µM, partner dose 5 µM), the cell count with 501Mel came out at 21.6%; in the test on A101D, 79.6%; with A2058, 96%; in the test with A375, 64.3%.

As for `Nc1nc(F)nc2c1ncn2[C@@H]1O[C@H](CO)[C@@H](O)[C@@H]1O` [fludarabine] + c1cc(-c2cnn3cc(-c4ccc(OCCN5CCCCC5)cc4)cnc23)ccn1 [Dorsomorphin] (first compound 1 µM, partner dose 2 µM), the cell count in the test on 501Mel is 3.71%; in the test with A101D, 82.8%; with A2058, 61.9%; in the test with A375, 39.8%.

For `CO[C@H]1C[C@@H]2CC[C@@H](C)[C@@](O)(O2)C(=O)C(=O)N2CCCC[C@H]2C(=O)O[C@H]([C@H](C)C[C@@H]2CC[C@@H](OCCO)[C@H](OC)C2)CC(=O)[C@H](C)/C=C(\C)[C@@H](O)[C@@H](OC)C(=O)[C@H](C)C[C@H](C)/C=C/C=C/C=C/1C` [everolimus] + COc1cc(N2CCC(N3CCN(C)CC3)CC2)ccc1Nc1ncc(Cl)c(Nc2ccccc2S(=O)(=O)C(C)C)n1 [NVP-TAE684] (first compound 0.1 µM, partner dose 0.4 µM), the cell count in the test with 501Mel amounted to 40%; in the test on A101D, 82.4%; in the test with A2058, 42.2%; with A375, 85.1%.

For `CC(=O)c1c(C)c2cnc(Nc3ccc(N4CCNCC4)cn3)nc2n(C2CCCC2)c1=O` [palbociclib] + O=C(O)C(=O)Nc1sc2c(c1C(=O)O)CCNC2 [TCS401] (first compound 0.2 µM, partner dose 8.33333 µM), the cell count in the test on 501Mel stood at 60.2%; in the test with A101D, 68.6%; with A2058, 104%; in the test with A375, 87.1%.

With `Nc1ccn([C@@H]2O[C@H](CO)[C@@H](O)C2(F)F)c(=O)n1` [gemcitabine] + Cc1cc([N+](=O)[O-])ccc1NS(=O)(=O)c1cc(Cl)ccc1Cl [FH535] (first compound 0.002 µM, partner dose 5 µM), the cell count is 84.8% with 501Mel, 57.9% with A101D, 46.6% in the test on A2058 and 72.3% in the test on A375.

As for `CO[C@H]1C[C@@H]2CC[C@@H](C)[C@@](O)(O2)C(=O)C(=O)N2CCCC[C@H]2C(=O)O[C@H]([C@H](C)C[C@@H]2CC[C@@H](OCCO)[C@H](OC)C2)CC(=O)[C@H](C)/C=C(\C)[C@@H](O)[C@@H](OC)C(=O)[C@H](C)C[C@H](C)/C=C/C=C/C=C/1C` [everolimus] + Cc1cc([N+](=O)[O-])ccc1NS(=O)(=O)c1cc(Cl)ccc1Cl [FH535] (first compound 0.1 µM, partner dose 5 µM), the cell count with 501Mel was 50.1%; with A101D it was 62.5%; with A2058 it was 49.1%; with A375, 99.3%.

Consider `Nc1ccn([C@@H]2O[C@H](CO)[C@@H](O)C2(F)F)c(=O)n1` [gemcitabine] + Oc1nc(-c2ccc(C(F)(F)F)cc2)nc2c1CSCC2 [XAV939] (first compound 0.002 µM, partner dose 10 µM), for which the cell count came to 103% in the test with 501Mel, 78.4% in the test with A101D, 52.8% with A2058 and 103% in the test on A375.

As to `CC(=O)O[C@@]12CO[C@@H]1C[C@H](O)[C@@]1(C)C(=O)[C@H](O)C3=C(C)[C@@H](OC(=O)[C@H](O)[C@@H](NC(=O)OC(C)(C)C)c4ccccc4)C[C@@](O)([C@@H](OC(=O)c4ccccc4)[C@H]21)C3(C)C` [Docetaxel] + O=S(=O)(c1ccccc1)N(CC(F)(F)F)c1ccc(C(O)(C(F)(F)F)C(F)(F)F)cc1 [T0901317] (first compound 0.0005 µM, partner dose 7 µM), the cell count with 501Mel worked out at 40.1%; in the test with A101D it was 61.7%; in the test on A2058 it was 8.88%; in the test on A375 it was 71.9%.

Consider `CO[C@H]1C[C@@H]2CC[C@@H](C)[C@@](O)(O2)C(=O)C(=O)N2CCCC[C@H]2C(=O)O[C@H]([C@H](C)C[C@@H]2CC[C@@H](OCCO)[C@H](OC)C2)CC(=O)[C@H](C)/C=C(\C)[C@@H](O)[C@@H](OC)C(=O)[C@H](C)C[C@H](C)/C=C/C=C/C=C/1C` [everolimus] + Cn1cc(/C=C2\C(=O)Nc3cccnc32)c2ccccc21 [GW441756] (first compound 0.1 µM, partner dose 2 µM), for which the cell count with 501Mel came out at 62.5%; in the test with A101D, 80.1%; with A2058, 65%; in the test on A375, 93.6%.

`CC(=O)O[C@@]12CO[C@@H]1C[C@H](O)[C@@]1(C)C(=O)[C@H](O)C3=C(C)[C@@H](OC(=O)[C@H](O)[C@@H](NC(=O)OC(C)(C)C)c4ccccc4)C[C@@](O)([C@@H](OC(=O)c4ccccc4)[C@H]21)C3(C)C` [Docetaxel] + Oc1cc(-c2nc(-c3ccccc3)[nH]c2-c2ccncc2)ccc1Cl [L779450] (first compound 0.0005 µM, partner dose 1 µM): the cell count in the test with 501Mel worked out at 40.4%; in the test on A101D it was 42%; with A2058 it was 4.59%; with A375, 73.4%.

With `Nc1nc(F)nc2c1ncn2[C@@H]1O[C@H](CO)[C@@H](O)[C@@H]1O` [fludarabine] + Clc1ccc(Nc2nnc(Cc3ccncc3)c3ccccc23)cc1 [vatalanib] (first compound 1 µM, partner dose 10 µM), the cell count was 80.9% in the test with A101D, 61.1% with A2058 and 36.7% with A375.

As to `CC(=O)O[C@@]12CO[C@@H]1C[C@H](O)[C@@]1(C)C(=O)[C@H](O)C3=C(C)[C@@H](OC(=O)[C@H](O)[C@@H](NC(=O)OC(C)(C)C)c4ccccc4)C[C@@](O)([C@@H](OC(=O)c4ccccc4)[C@H]21)C3(C)C` [Docetaxel] + CC(C)(C)c1cnc(CSc2cnc(NC(=O)C3CCNCC3)s2)o1 [SNS-032] (first compound 0.0005 µM, partner dose 0.05 µM), the cell count with A101D was found to be 58.1%; in the test with A2058, 6.84%; in the test with A375 it was 73.6%.

With `Nc1ncn([C@H]2C[C@H](O)[C@@H](CO)O2)c(=O)n1` [decitabine] + C=CCNC1=C2C[C@@H](C)C[C@H](OC)[C@H](O)[C@@H](C)/C=C(\C)[C@H](OC(N)=O)[C@@H](OC)/C=C\C=C(/C)C(=O)NC(=CC1=O)C2=O [Tanespimycin] (first compound 0.5 µM, partner dose 0.01 µM), the cell count came out at 69.4% with A101D, 47.8% in the test on A2058 and 118% in the test with A375.

As to `Nc1ncn([C@H]2C[C@H](O)[C@@H](CO)O2)c(=O)n1` [decitabine] + COc1ccc(Cl)c(Nc2nc3ccccc3nc2NS(=O)(=O)c2cccc(NC(=O)C(C)(C)N)c2)c1 [XL147] (first compound 0.5 µM, partner dose 4 µM), the cell count in the test with A101D came to 103%; with A2058, 74.1%; in the test on A375, 87.8%.

For `Nc1ncn([C@H]2C[C@H](O)[C@@H](CO)O2)c(=O)n1` [decitabine] + O=C(Nc1ccccc1)c1cc([N+](=O)[O-])ccc1Cl [GW9662] (first compound 0.5 µM, partner dose 10 µM), the cell count turned out to be 97.3% with 501Mel, 68.5% in the test with A101D, 62.4% in the test on A2058 and 136% with A375.

With `Nc1nc(F)nc2c1ncn2[C@@H]1O[C@H](CO)[C@@H](O)[C@@H]1O` [fludarabine] + N#Cc1c(O)c2c(-c3ccc(-c4ccccc4O)cc3)csc2[nH]c1=O [A769662] (first compound 1 µM, partner dose 10 µM), the cell count was determined as 4.33% in the test on 501Mel, 106% in the test on A101D, 77.1% in the test with A2058 and 24.8% in the test on A375.

As to `CC(=O)O[C@@]12CO[C@@H]1C[C@H](O)[C@@]1(C)C(=O)[C@H](O)C3=C(C)[C@@H](OC(=O)[C@H](O)[C@@H](NC(=O)OC(C)(C)C)c4ccccc4)C[C@@](O)([C@@H](OC(=O)c4ccccc4)[C@H]21)C3(C)C` [Docetaxel] + Cc1ccc(NC(=O)c2cccc(N(C)C)c2)cc1NC(=O)c1ccc(O)cc1 [ZM336372] (first compound 0.0005 µM, partner dose 10 µM), the cell count is 45.6% with A101D, 10.3% in the test on A2058 and 78.3% in the test on A375.

Take `Nc1ccn([C@@H]2O[C@H](CO)[C@@H](O)C2(F)F)c(=O)n1` [gemcitabine] + O=c1cc(-c2cccc3c2Sc2ccccc2S3)oc(N2CCOCC2)c1 [KU55933] (first compound 0.002 µM, partner dose 5 µM): the cell count amounted to 102% with 501Mel, 77.1% with A101D, 73.3% in the test on A2058 and 126% in the test with A375.

For the molecule `CO[C@H]1C[C@@H]2CC[C@@H](C)[C@@](O)(O2)C(=O)C(=O)N2CCCC[C@H]2C(=O)O[C@H]([C@H](C)C[C@@H]2CC[C@@H](OCCO)[C@H](OC)C2)CC(=O)[C@H](C)/C=C(\C)[C@@H](O)[C@@H](OC)C(=O)[C@H](C)C[C@H](C)/C=C/C=C/C=C/1C` [everolimus] + COc1cc(Nc2ncc(F)c(Nc3ccc4c(n3)NC(=O)C(C)(C)O4)n2)cc(OC)c1OC [Tamatinib] (first compound 0.1 µM, partner dose 2 µM), the values for the cell count in the test on A101D, in the test on A2058 and in the test on A375 were 54%, 75.9% and 78%, respectively.

In the case of `CO[C@H]1C[C@@H]2CC[C@@H](C)[C@@](O)(O2)C(=O)C(=O)N2CCCC[C@H]2C(=O)O[C@H]([C@H](C)C[C@@H]2CC[C@@H](OCCO)[C@H](OC)C2)CC(=O)[C@H](C)/C=C(\C)[C@@H](O)[C@@H](OC)C(=O)[C@H](C)C[C@H](C)/C=C/C=C/C=C/1C` [everolimus] + Oc1cc(-c2nc(-c3ccccc3)[nH]c2-c2ccncc2)ccc1Cl [L779450] (first compound 0.1 µM, partner dose 1 µM), the cell count with 501Mel is 60.8%; with A101D it was 66.2%; in the test with A2058 it was 70.2%; in the test on A375, 100%.

For the molecule `CC(=O)O[C@@]12CO[C@@H]1C[C@H](O)[C@@]1(C)C(=O)[C@H](O)C3=C(C)[C@@H](OC(=O)[C@H](O)[C@@H](NC(=O)OC(C)(C)C)c4ccccc4)C[C@@](O)([C@@H](OC(=O)c4ccccc4)[C@H]21)C3(C)C` [Docetaxel] + COc1cc2c(Oc3ccc4[nH]c(C)cc4c3F)ncnc2cc1OCCCN1CCCC1 [cediranib] (first compound 0.0005 µM, partner dose 2 µM), the cell count was determined as 54.5% in the test on A101D, 4.89% with A2058 and 75.1% in the test with A375.

For the molecule `CO[C@H]1C[C@@H]2CC[C@@H](C)[C@@](O)(O2)C(=O)C(=O)N2CCCC[C@H]2C(=O)O[C@H]([C@H](C)C[C@@H]2CC[C@@H](OCCO)[C@H](OC)C2)CC(=O)[C@H](C)/C=C(\C)[C@@H](O)[C@@H](OC)C(=O)[C@H](C)C[C@H](C)/C=C/C=C/C=C/1C` [everolimus] + NCC(=O)Nc1ccc(-n2nc(C(F)(F)F)cc2-c2ccc3c(ccc4ccccc43)c2)cc1 [OSU03012] (first compound 0.1 µM, partner dose 5 µM), the cell count came out at 79.3% with A101D, 63.1% with A2058 and 70.7% in the test with A375.
